Out of some 52,000 compounds screened, about 4,300 (8.3%) were called active. Rule as the data show it: active = survival mostly below about 52% (no sharp cut-off); inactive = mostly above about 56%. This is one part of the list.

The subject of this assay is DeltatarO mutant. The assay is described as follows: growth inhibition of S. aureus wild type versus tarO mutant, primary screen, teichoic acid synthesis inhibitors, RN4220, OD600 (AID 463173). The note with it: OD600, 18 h, active compounds read low, screened at 18.75 µg/mL (by protocol).
As for `COc1ccc(F)cc1S(=O)(=O)NCC(c1ccco1)S(=O)(=O)c1cccs1` (centres undefined), the survival was inactive: 91%. The result for `CC(C)Cn1nc(NC(=O)c2cccc(Cl)c2)c2cc3ccccc3nc21` reads inactive: 81%. With `CCOC(=O)c1ccc(NC(=O)c2c(NCc3sccc3C)sc3c2CCC(C)C3)cc1` (centres undefined) the figure was inactive: 116%; with `NC(=O)c1nc(Nc2ccccc2)sc1NC(=O)c1c(F)cccc1F`, inactive: 74%; with `CN1CCN(C(CNC(=O)C(=O)Nc2ccc(Cl)cc2)c2cccnc2)CC1` (centres undefined), inactive: 86%.

In the case of `Cc1ccc(C)c(N2CCN(C(=O)CCc3nnc4n(C)c(=O)c5ccccc5n34)CC2)c1`, the survival was inactive: 95%.

Take `CCOC(=O)c1cccnc1SCC(=O)N(CC)c1cccc(C)c1`: the survival is inactive: 101%. The result for `O=C(CN(Cc1ccco1)C(=O)Cn1nnc(-c2cccs2)n1)NCc1ccccc1` reads inactive: 94%. As to `Cc1ccc(Sc2ccc(N3CCCC(C(=O)Nc4ccc(F)c(Cl)c4)C3)nn2)cc1` (centres undefined), the survival was inactive: 68%. The result for `CCOc1ccc(CNC(=O)c2ccc3c(c2)c(C)c(C)n3C)cc1` reads inactive: 85%; that for `CCCN(CCC)C(=O)Cn1c(=O)n(-c2ccc(OC)cc2OC)c(=O)c2c3c(sc21)CCC3`, inactive: 86%; that for `CCCn1c2ccccc2c2cnn(CC(=O)NCC3CCN(Cc4ccc(C)cc4)CC3)c(=O)c21`, active: 17%. With `COc1ccccc1Nc1nc(NCC2CCCO2)c2ccccc2n1` (centres undefined) the figure was inactive: 103%.

In the case of `CCOc1ccc(-n2c(SCc3ccccc3)nc3c([nH]c4ccccc43)c2=O)cc1`, the survival is inactive: 71%. Take `CCC(c1nnnn1CCOC)N1CCN(c2nc3ccccc3s2)CC1` (centres undefined): the survival is inactive: 87%.

On to `CCCCOc1cccc(C(=O)Nc2sc3c(c2C(=O)OCC)CCCC3)c1`, for which the survival was inactive: 53%.

Regarding `Cc1ccc2nc3c(cc(C#N)c(=O)n3-c3nnc(SCc4ccc(F)cc4)s3)c(=O)n2c1`, the survival was inactive: 72%. The result for `Cc1cccc2c(=O)cc(CSc3ccccc3NC(=O)C(C)C)[nH]c12` reads inactive: 83%; that for `COc1cccc(NC(=O)CSc2nc(=O)n(Cc3cccnc3)c3c2CCC3)c1`, inactive: 91%; that for `CCOC(=O)CCc1c(C)nc2c(-c3ccccc3)c(C)[nH]n2c1=O`, inactive: 87%. The result for `CCOc1ccccc1CNC(=O)CSc1n[nH]c(-c2ccccc2)n1` reads inactive: 95%. The result for `O=C(CSc1nnc(-c2ccncc2)n1-c1ccccc1)Nc1ccc(F)cc1` reads inactive: 83%; that for `Cc1ccccc1OCCCC(=O)NCc1ccco1`, inactive: 90%; that for `Cc1cc(=O)n(Cc2cccc(Cl)c2)c2c1c(C)nn2C`, inactive: 102%. Regarding `COc1ccc(OC)c(C2C(C(=O)Nc3ccc(C)cc3C)=C(C)Nc3c(C(=O)Nc4ccc(F)cc4)cnn32)c1` (centres undefined), the survival was inactive: 96%. The result for `CCn1c2c(c(=O)n3ncc(C(=O)N4CCN(c5ccccc5)CC4)c13)CN(Cc1ccc(OC)cc1)CC2` reads inactive: 128%; that for `Cc1cc(C(F)F)n2ncc(C(=O)O)c2n1`, inactive: 91%; that for `Cc1ccc(NC(=O)Nc2nnc(SCC(=O)N3CCCCC3)s2)cc1`, inactive: 83%. Turning to `CC(C)=C(C#N)c1nc2ccccc2s1`, the survival is inactive: 80%. The result for `COc1cccc(N2CC(NC(=O)c3cc4ccccc4o3)CC2=O)c1` (centres undefined) reads inactive: 69%. The result for `Fc1ccc(-c2noc3ncnc(NCCc4ccc(Cl)cc4)c23)cc1` reads inactive: 62%; that for `COc1ccc(Nc2cc(C)c3cc(NC(=O)c4ccccc4Cl)ccc3n2)cc1`, inactive: 95%.

Take `CC(C)c1ccc2c(c1)NC(c1ccc(F)cc1)=NC(c1cccs1)=N2`: the survival was active: 45%. Take `Cc1nc2ncnn2c(C)c1CCC(=O)N1CCN(c2ccc(F)cc2)CC1`: the survival was inactive: 89%. With `COc1cccc(CNC(=O)N2CCc3c(sc4c3CCCC4)C2c2ccc(F)cc2)c1` (centres undefined) the figure was inactive: 102%; with `Cc1cc(C)c(C#N)c(N2CCN(c3cccc(C)c3C)CC2)n1`, inactive: 106%; with `Cc1cccc(C(=O)NCCc2nc3ccccc3n2Cc2ccccc2Cl)c1`, inactive: 107%. The result for `CCOC(=O)c1ccccc1NC(=O)c1cn(CC(C)C)c(=O)c2cc(OC)c(OC)cc12` reads inactive: 53%; that for `O=C(CN1CCOCC1)NCC1COc2ccccc2O1` (centres undefined), inactive: 95%. The result for `COc1ccc(OC)c(-c2noc(CSc3nnc(-c4ccccc4)n3-c3ccccc3)n2)c1` reads inactive: 79%. Turning to `Cc1ccc(-n2ncc3c(Nc4ccc(Oc5ccccc5)cc4)ncnc32)c(C)c1`, the survival was inactive: 95%. The result for `COc1ccc(N2CCN(S(=O)(=O)c3ccc(C4CCCCC4)cc3)CC2)cc1` reads inactive: 79%; that for `Cc1ccc(OCC(=O)Nc2nnc(S(=O)(=O)N3CCc4ccccc43)s2)cc1`, active: 13%; that for `COc1ccc(Cl)cc1NC(=O)CSc1nc(=O)n(Cc2ccco2)c2c1CCC2`, inactive: 94%. In the case of `COC(=O)C1=C(CS(=O)(=O)c2ccc(C)cc2C)NC(=O)NC1c1ccc(C)cc1` (centres undefined), the survival is inactive: 77%. The result for `COc1ccc2c(C)c(CCC(=O)NCCc3ccccc3)c(=O)oc2c1` reads inactive: 55%; that for `Cc1cc(C)c(S(=O)(=O)NCc2ccc3c(c2)CCN3C(=O)c2ccccc2)c(C)c1`, inactive: 94%; that for `Cc1ccc(C(=O)CSc2nnc(CSc3nc(C)cc(C)n3)n2C)cc1`, inactive: 88%. The result for `CCCCN(C)CCNC(=O)c1nn(-c2ccc(OC)c(Cl)c2)c(=O)c2c1c1ccccc1n2C` reads inactive: 99%. As to `Cc1nn(-c2ccccc2)c2sc(C(=O)Nc3ccc(Cl)cc3Cl)cc12`, the survival was inactive: 71%. The result for `Cc1cccc(N2CCN(C(c3ccccc3F)c3nnnn3C(C)C)CC2)c1C` (centres undefined) reads inactive: 92%; that for `CC(C)Cc1nc2ccc(N)cc2[nH]1`, inactive: 81%. The result for `COc1ccc(CNC(=O)Cn2c(=O)c3cccn3c3cccnc32)cc1` reads inactive: 102%; that for `Cc1cccn2c(=O)c(C(=O)N3CCN(c4ccccc4F)CC3)cnc12`, inactive: 112%; that for `COc1ccc(C(=O)Nc2nnc(SCc3cc(=O)c4cc(C)ccc4[nH]3)s2)cc1OC`, inactive: 89%. With `CCC(Oc1ccccc1F)C(=O)Nc1cc(-c2ccccc2)no1` (centres undefined) the figure was active: 35%; with `COc1ccccc1C(c1c(O)cc(C)n(Cc2ccco2)c1=O)N1CCCCC1` (centres undefined), inactive: 91%.

In the case of `Cc1ccc(NCC(O)CN)c(Br)c1` (centres undefined), the survival is inactive: 100%.

Turning to `Cc1cccc(N2CCN(S(=O)(=O)c3cc(C(=O)Nc4ccc(Oc5ccccc5)cc4)ccc3F)CC2C)c1` (centres undefined), the survival is inactive: 88%.

The values are drawn from PubChem BioAssay AID463173 (ICCB-Longwood Screening Facility, Harvard Medical School, 2010).
